Results published in article PMC4336329 (PLoS ONE, 2015).
Out of some 310,000 compounds screened, about 14,000 (4.5%) showed an effect of 50% or more. The effect is printed as a negative number. This is one part of the list.

Molecular target: human ether-à-go-go-related gene (hERG) potassium channel (human, UniProt Q12809)
Assay: primary screen, population patch clamp on CHO cells stably expressing hERG
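Note: peak tail current of the secondary pulse compared with the same well before compound.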

human ether-à-go-go-related gene (hERG) potassium channel, sequence (Q12809 whole entry, looked up): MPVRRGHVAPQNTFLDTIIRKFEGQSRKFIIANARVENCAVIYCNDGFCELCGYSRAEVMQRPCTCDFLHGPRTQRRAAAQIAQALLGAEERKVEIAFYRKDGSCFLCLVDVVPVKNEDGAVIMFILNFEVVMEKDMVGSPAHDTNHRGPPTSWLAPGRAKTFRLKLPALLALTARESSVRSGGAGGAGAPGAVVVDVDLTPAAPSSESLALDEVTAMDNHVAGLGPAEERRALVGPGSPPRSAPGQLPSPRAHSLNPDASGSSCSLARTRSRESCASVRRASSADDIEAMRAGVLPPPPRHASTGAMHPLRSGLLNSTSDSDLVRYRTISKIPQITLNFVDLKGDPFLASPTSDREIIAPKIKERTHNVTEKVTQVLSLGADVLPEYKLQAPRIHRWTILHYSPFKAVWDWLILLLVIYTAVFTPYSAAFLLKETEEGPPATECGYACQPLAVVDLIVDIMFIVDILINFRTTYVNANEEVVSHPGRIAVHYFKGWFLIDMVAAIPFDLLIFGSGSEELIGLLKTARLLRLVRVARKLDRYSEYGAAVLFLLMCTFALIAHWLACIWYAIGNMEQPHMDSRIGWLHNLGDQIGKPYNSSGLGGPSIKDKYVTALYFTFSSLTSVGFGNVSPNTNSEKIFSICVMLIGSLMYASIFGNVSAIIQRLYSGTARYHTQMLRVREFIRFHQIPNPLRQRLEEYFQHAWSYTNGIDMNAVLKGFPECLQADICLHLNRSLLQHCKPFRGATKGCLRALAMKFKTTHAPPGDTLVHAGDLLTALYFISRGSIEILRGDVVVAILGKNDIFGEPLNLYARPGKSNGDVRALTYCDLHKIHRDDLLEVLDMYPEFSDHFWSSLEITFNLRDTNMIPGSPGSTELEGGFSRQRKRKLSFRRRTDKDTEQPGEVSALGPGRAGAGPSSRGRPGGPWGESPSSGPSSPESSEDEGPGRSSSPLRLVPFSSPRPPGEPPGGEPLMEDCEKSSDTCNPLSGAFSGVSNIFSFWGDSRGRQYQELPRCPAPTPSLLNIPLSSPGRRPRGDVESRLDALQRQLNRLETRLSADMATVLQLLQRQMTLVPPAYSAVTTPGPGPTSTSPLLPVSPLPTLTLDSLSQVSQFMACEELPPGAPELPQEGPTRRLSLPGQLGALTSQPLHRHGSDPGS

Q: How did the “hERG current change (%, negative = inhibition) at 10uM” value turn out when `O=C(/C=C/c1cccc(Br)c1)OCC(=O)N1CCN(c2ccccc2)CC1` was run?
A: -3.38%

Q: With `Cc1cc2ccccc2c(=O)n1CC(=O)Nc1ccc2c(c1)OCCO2` as the compound, how does the “hERG current change (%, negative = inhibition) at 10uM” value read?
A: -2.46%

Q: `Cc1ccsc1CN(C)C(=O)c1ccc(Oc2ccccc2)cc1` was tested. Which “hERG current change (%, negative = inhibition) at 10uM” value did it give?
A: -26.8%

Q: `CC1CCCN(C(=S)Nc2ccc(Nc3ccccc3)cc2)C1` (stereo not drawn) was tested. Which “hERG current change (%, negative = inhibition) at 10uM” value did it give?
A: 19%

Q: How did the “hERG current change (%, negative = inhibition) at 10uM” value turn out when `Cc1occc1C(=O)Nc1ccccc1C#N` was run?
A: 19.8%

Q: `Oc1ccc(N2CCN(c3nnnn3-c3ccccc3)CC2)cc1` was tested. Which “hERG current change (%, negative = inhibition) at 10uM” value did it give?
A: -2.93%

Q: `COc1ccc(-c2cc(C(F)F)n3ncc(C(=O)Nc4ccc(C(=O)N5CCOCC5)cc4)c3n2)cc1` was tested. Which “hERG current change (%, negative = inhibition) at 10uM” value did it give?
A: 0.413%

Q: With `O=C(O)CSc1cn(Cc2ccccc2)c2ccccc12` as the compound, how does the “hERG current change (%, negative = inhibition) at 10uM” value read?
A: 17.6%

Q: How did the “hERG current change (%, negative = inhibition) at 10uM” value turn out when `Cn1c(=O)c(Oc2ccc(F)cc2)c(O)c2ccccc21` was run?
A: 1.22%

Q: How did the “hERG current change (%, negative = inhibition) at 10uM” value turn out when `Cc1[nH]c2ccc(F)cc2c1CCN1C(=O)OC(C)(C)C1(C)O` (stereo not drawn) was run?
A: -7.23%

Q: How did the “hERG current change (%, negative = inhibition) at 10uM” value turn out when `COc1cc(/C=N/NC(=O)NC23CC4CC(CC(C4)C2)C3)ccc1OCC(N)=O` was run?
A: -57%

Q: For `Cc1nc(NC(=O)c2ccccc2)nc2cc3c(cc12)OCO3`, which “hERG current change (%, negative = inhibition) at 10uM” value is on record?
A: 7.75%

Q: For `Cc1c(C)c2ccc(OCC(=O)Nc3ccc(CN4CCOCC4)cc3)cc2oc1=O`, which “hERG current change (%, negative = inhibition) at 10uM” value is on record?
A: -36.2%

Q: With `CCc1nnc(NC(=O)C2CCN(c3nccc(C)n3)CC2)s1` as the compound, how does the “hERG current change (%, negative = inhibition) at 10uM” value read?
A: 10.8%

Q: For `CCN(CC(=O)NCCc1ccc(S(N)(=O)=O)cc1)Cc1nc2ccccc2c(=O)[nH]1`, which “hERG current change (%, negative = inhibition) at 10uM” value is on record?
A: 17.9%

Q: How did the “hERG current change (%, negative = inhibition) at 10uM” value turn out when `COc1ccc(CNC(=O)/C=C/c2ccccc2[N+](=O)[O-])cc1` was run?
A: 10.6%

Q: How did the “hERG current change (%, negative = inhibition) at 10uM” value turn out when `COc1ccc(CN2CCN(C(=O)Cn3c(=O)oc4cc(Cl)ccc43)CC2)c(OC)c1OC` was run?
A: -24.3%

Q: Which “hERG current change (%, negative = inhibition) at 10uM” value does the source give for `COc1ccc(-c2cc3c(=O)n(CC(=O)Nc4ccc(Cl)cc4)ncn3n2)cc1` here?
A: 18.3%

Q: `O=S(=O)(c1ccc(NC(=S)NC2CCCC2)cc1)N1CCCC1` was tested. Which “hERG current change (%, negative = inhibition) at 10uM” value did it give?
A: 3.45%

Q: `CCCn1c(SCC(=O)NNC(=O)c2ccc(C)cc2)nnc1C(C)C` was tested. Which “hERG current change (%, negative = inhibition) at 10uM” value did it give?
A: 10.8%

Q: With `COc1cc(CCNC(=O)c2ccccc2NC(=O)C2=C(C)OCCS2)cc(OC)c1OC` as the compound, how does the “hERG current change (%, negative = inhibition) at 10uM” value read?
A: -3.59%

Q: How did the “hERG current change (%, negative = inhibition) at 10uM” value turn out when `O=C(CN1CCN(c2ccccc2)CC1)Nc1ccc(Oc2ccccc2)cc1` was run?
A: 15.6%

Q: `COc1ccc(CC(=S)N2CCOCC2)cc1` was tested. Which “hERG current change (%, negative = inhibition) at 10uM” value did it give?
A: 11%

Q: How did the “hERG current change (%, negative = inhibition) at 10uM” value turn out when `O=C(COC(=O)/C=C/c1ccc(Cl)cc1)NCCc1ccccc1` was run?
A: 2.89%

Q: Which “hERG current change (%, negative = inhibition) at 10uM” value does the source give for `C1COCCO1.Cc1ccc2nc(Nc3nc(C)cc(-c4ccccc4)n3)[nH]c(=O)c2c1` here?
A: 5.62%

Q: `Cc1cc2ncn(S(=O)(=O)N3CCOCC3)c2cc1C` was tested. Which “hERG current change (%, negative = inhibition) at 10uM” value did it give?
A: 12.6%

Q: With `COc1ccc(S(=O)(=O)n2nc(OC(=O)c3ccncc3)cc2N)cc1` as the compound, how does the “hERG current change (%, negative = inhibition) at 10uM” value read?
A: 16.9%

Q: For `O=C(Nc1ccc(C(F)(F)F)cc1)N1CCN(C(=O)c2ccco2)CC1`, which “hERG current change (%, negative = inhibition) at 10uM” value is on record?
A: -21.8%

Q: Which “hERG current change (%, negative = inhibition) at 10uM” value does the source give for `C(=N\N1CCN(Cc2ccccc2)CC1)/c1cccs1` here?
A: -8.88%

Q: For `C#CCOC(=O)C[N+](C)(C)CC#Cc1ccccc1.[Cl-]`, which “hERG current change (%, negative = inhibition) at 10uM” value is on record?
A: 33.3%

Q: Which “hERG current change (%, negative = inhibition) at 10uM” value does the source give for `CCCCn1c(N)c(N(CCOC)C(=O)c2ccc(OCc3c(C)noc3C)cc2)c(=O)[nH]c1=O` here?
A: 8.48%

Q: With `CC1=C(C(=O)OCc2ccccc2)C(c2ccc(C(F)(F)F)cc2)NC(=O)N1CCCCCC(=O)O` (stereo not drawn) as the compound, how does the “hERG current change (%, negative = inhibition) at 10uM” value read?
A: 0.239%

Q: Which “hERG current change (%, negative = inhibition) at 10uM” value does the source give for `C[C@H](NC(=O)c1nc[nH]c1C(=O)NCc1ccccc1)C(=O)OC(C)(C)C` here?
A: -13.9%

Q: How did the “hERG current change (%, negative = inhibition) at 10uM” value turn out when `CCOc1ccc(-n2c(=O)c3sccc3n(Cc3cccc([N+](=O)[O-])c3)c2=O)cc1` was run?
A: 15.1%

Q: With `COc1c(Br)cc(Br)cc1/C=N/NC(=O)c1cccnc1` as the compound, how does the “hERG current change (%, negative = inhibition) at 10uM” value read?
A: -3.77%

Q: How did the “hERG current change (%, negative = inhibition) at 10uM” value turn out when `CCOC(=O)c1c(NC(=O)CSc2nnc(Cc3ccccc3)o2)sc(C(C)=O)c1C` was run?
A: -64.8%

Q: `COc1ccc(CN(C)C(C)C(=O)Nc2ccc([N+](=O)[O-])cc2Cl)cc1OC` (stereo not drawn) was tested. Which “hERG current change (%, negative = inhibition) at 10uM” value did it give?
A: -35.9%

Q: With `COC(=O)Cc1c(C)c2ccc(OCC(=O)N3CCCC(C)C3)c(C)c2oc1=O` (stereo not drawn) as the compound, how does the “hERG current change (%, negative = inhibition) at 10uM” value read?
A: -23.6%

Q: With `CCCC1(c2ccccc2)NC(=O)N(CC(=O)N2CC(=O)Nc3ccccc32)C1=O` (stereo not drawn) as the compound, how does the “hERG current change (%, negative = inhibition) at 10uM” value read?
A: 6.34%

Q: `COc1ccc(CNC(=O)CSc2ncn[nH]2)cc1` was tested. Which “hERG current change (%, negative = inhibition) at 10uM” value did it give?
A: -3.87%

Q: With `NC(=O)CC1C(=O)N(c2ccc(F)cc2)C(=O)N1NC(=O)CCc1ccccc1` (stereo not drawn) as the compound, how does the “hERG current change (%, negative = inhibition) at 10uM” value read?
A: 6.14%

Q: How did the “hERG current change (%, negative = inhibition) at 10uM” value turn out when `O=C(Nc1c(C(=O)N2CCN(c3ccccn3)CC2)oc2ccccc12)c1ccc([N+](=O)[O-])cc1` was run?
A: -51%

Q: For `O=c1c(-c2cccc([N+](=O)[O-])c2)[n+]([O-])c2ccccc2n1O`, which “hERG current change (%, negative = inhibition) at 10uM” value is on record?
A: 20.4%

Q: For `COc1ccc(/C=N/NC(=O)Nc2nonc2N)cc1`, which “hERG current change (%, negative = inhibition) at 10uM” value is on record?
A: -9.74%

Q: Which “hERG current change (%, negative = inhibition) at 10uM” value does the source give for `Cn1ccnc1SCc1cc(=O)[nH]c2ccccc12` here?
A: 18.7%

Q: `CCCCCN(C(=O)CCC(=O)OCc1cccc(F)c1)c1c(N)n(CCCC)c(=O)[nH]c1=O` was tested. Which “hERG current change (%, negative = inhibition) at 10uM” value did it give?
A: 3.76%

Q: For `CC1CN(Cc2cc(=O)oc3cc(O)c(Cl)cc23)CC(C)O1` (stereo not drawn), which “hERG current change (%, negative = inhibition) at 10uM” value is on record?
A: 13.8%

Q: For `Cc1ccc(S(=O)(=O)N2CCCOC2CNC(=O)C(=O)NCCc2c[nH]c3ccccc23)cc1` (stereo not drawn), which “hERG current change (%, negative = inhibition) at 10uM” value is on record?
A: 1.28%

Q: For `CC1(C)CC(=O)C2=C(C1)N(c1ccc(Cl)cc1)C(=O)C2(O)C(F)(F)F` (stereo not drawn), which “hERG current change (%, negative = inhibition) at 10uM” value is on record?
A: -47.1%

Q: For `CC(OC(=O)CNC(=O)COc1ccccc1)C(=O)N(C)Cc1ccccc1` (stereo not drawn), which “hERG current change (%, negative = inhibition) at 10uM” value is on record?
A: 5.07%

Q: With `CC(C)(CNS(=O)(=O)c1ccc2c(c1)OCCO2)N1CCOCC1.Cl` as the compound, how does the “hERG current change (%, negative = inhibition) at 10uM” value read?
A: 25.6%

Q: `CCOc1ccccc1NC(=S)N(CCCN1CCOCC1)Cc1cn(C)c2ccccc12` was tested. Which “hERG current change (%, negative = inhibition) at 10uM” value did it give?
A: -24.5%

Q: How did the “hERG current change (%, negative = inhibition) at 10uM” value turn out when `C#CC(C)(C)NC(=O)c1ccc(-c2ccccc2F)cc1` was run?
A: 4.41%

Q: How did the “hERG current change (%, negative = inhibition) at 10uM” value turn out when `Cc1nn(C)cc1NC(=O)CCSc1nc(-c2ccco2)cc(C(F)(F)F)n1` was run?
A: -5.29%
